Test results taken from the BET-seq Pho4 binding data (Le et al. 2018).
The other results are listed elsewhere or left out. These are noisy estimates, calculated here from bound and input reads.

Target: T1, Pho4 (S. cerevisiae) (UniProt P07270)
T1 sequence: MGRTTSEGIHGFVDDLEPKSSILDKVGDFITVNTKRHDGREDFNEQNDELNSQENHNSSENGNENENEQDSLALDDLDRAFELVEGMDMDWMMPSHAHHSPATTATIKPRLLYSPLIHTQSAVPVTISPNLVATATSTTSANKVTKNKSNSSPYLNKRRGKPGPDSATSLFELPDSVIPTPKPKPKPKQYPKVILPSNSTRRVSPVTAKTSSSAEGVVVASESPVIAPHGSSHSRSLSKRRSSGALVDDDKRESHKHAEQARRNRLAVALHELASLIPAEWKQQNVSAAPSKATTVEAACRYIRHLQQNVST
Assay: relative binding free energy (BET-seq); higher = weaker binding
Conditions: reference: library average

Sequence	relative binding free energy
CGTTGCACGTGATCGT	0.06 kcal/mol
TAATGCACGTGGTCGG	-0.24 kcal/mol
AGTCACACGTGTGGTA	0.13 kcal/mol
GTTTTCACGTGCGTGT	0.28 kcal/mol
AGTTTCACGTGGAATA	0.37 kcal/mol
AGATACACGTGATATG	0.12 kcal/mol
TACGTCACGTGTGTAA	0 kcal/mol
GGGAGCACGTGATTTT	0.11 kcal/mol
AGTCGCACGTGGCATG	-0.08 kcal/mol
GTTGTCACGTGTAAGT	0.18 kcal/mol
CTTTTCACGTGCATGG	0.31 kcal/mol
TTTTACACGTGGATTA	0.29 kcal/mol
TTTCGCACGTGGTGCA	-0.22 kcal/mol
ATAGGCACGTGTTTCT	-0.2 kcal/mol
ACGAGCACGTGTTAGG	-0.07 kcal/mol
AAAAGCACGTGAGGTT	0.08 kcal/mol
TTCTGCACGTGAGTGT	0.3 kcal/mol
CTGAGCACGTGAGGTA	0.12 kcal/mol
ATGGGCACGTGAGGTG	0.06 kcal/mol
GTGGTCACGTGAGCTT	0.38 kcal/mol
GTGGTCACGTGACTGT	0.19 kcal/mol
TTGTGCACGTGCTGTT	-0.05 kcal/mol
AGTGTCACGTGGCTGT	-0.09 kcal/mol
TGGGGCACGTGGGAAA	-0.19 kcal/mol
CTGTGCACGTGTAGTT	-0.02 kcal/mol

Sequence	relative binding free energy
TTAGGCACGTGCTGCG	-0.3 kcal/mol
TGCTGCACGTGGCTGT	-0.13 kcal/mol
CATGCCACGTGGGGTT	-0.29 kcal/mol
TGGGTCACGTGTTATG	0.27 kcal/mol
AAGGTCACGTGTTCGG	0.28 kcal/mol
TGCGTCACGTGTTATT	0.02 kcal/mol
TAAATCACGTGTAAGA	0.34 kcal/mol
TTGTCCACGTGGTGGA	0.03 kcal/mol
TCTTGCACGTGCTGGT	-0.05 kcal/mol
ATTAACACGTGTTTGT	-0.14 kcal/mol
TGTTGCACGTGGTGCC	-0.18 kcal/mol
GTTGGCACGTGGGGGC	-0.12 kcal/mol
TGAGCCACGTGTAGTA	0.05 kcal/mol
AATTGCACGTGGCTGG	-0.08 kcal/mol
TTAGTCACGTGAATAA	0.25 kcal/mol
GTGATCACGTGTTGTC	0.08 kcal/mol
GCTTGCACGTGCGTAG	0.15 kcal/mol
ATGATCACGTGAGTTT	0.28 kcal/mol
AGCTGCACGTGATGCG	0.1 kcal/mol
CAGAGCACGTGGGAGG	-0.2 kcal/mol
GGGGGCACGTGGGTAC	-0.07 kcal/mol
TTACACACGTGGGAGG	-0.06 kcal/mol
AAGGACACGTGTCAGT	0.24 kcal/mol
GGTTACACGTGGGAGC	-0.02 kcal/mol
TCGGGCACGTGCAGTG	-0.18 kcal/mol

Sequence	relative binding free energy
TTATGCACGTGTTAAG	-0.08 kcal/mol
ATTAGCACGTGTTTGT	-0.08 kcal/mol
ATGGGCACGTGAACAG	0.15 kcal/mol
AAGATCACGTGTAGTT	0.14 kcal/mol
GGAAACACGTGTGGTT	0.01 kcal/mol
CGTTGCACGTGAGATG	0.12 kcal/mol
AGTGTCACGTGTAGGC	0.05 kcal/mol
TCGTGCACGTGTGGGG	-0.08 kcal/mol
TAATGCACGTGGTTAG	-0.1 kcal/mol
GTGTACACGTGAGACG	0.19 kcal/mol
TTGAGCACGTGCGAGG	-0.16 kcal/mol
ATGTGCACGTGTATTA	0.08 kcal/mol
TAGGTCACGTGTAACG	0.25 kcal/mol
GTGAGCACGTGCGTTT	-0.09 kcal/mol
CTGACCACGTGTGTGG	-0.01 kcal/mol
TTAGACACGTGAGGCT	0.26 kcal/mol
ATTTACACGTGAATGG	0.26 kcal/mol
ATGTCCACGTGGGTAA	-0.01 kcal/mol
GTCAACACGTGGGGTT	-0.06 kcal/mol
GGTATCACGTGTATCG	0.14 kcal/mol
TATAACACGTGGTAAT	0.05 kcal/mol
GTGGTCACGTGAACTG	0.43 kcal/mol
ATATTCACGTGGGATG	0.06 kcal/mol
ATCGTCACGTGTAGGA	0.29 kcal/mol
TATTACACGTGTCATT	0.11 kcal/mol

Sequence	relative binding free energy
TTTGACACGTGCTGTT	-0.23 kcal/mol
TAGAACACGTGGATTT	0.22 kcal/mol
TTCGTCACGTGGGGGG	0.01 kcal/mol
TCTGGCACGTGAGGGG	0.16 kcal/mol
ATGTACACGTGGGCGA	-0.02 kcal/mol
GGTATCACGTGAATTA	0.44 kcal/mol
GACTTCACGTGATTGG	0.48 kcal/mol
GCGTGCACGTGTGTCT	0.18 kcal/mol
ACTTTCACGTGGTGCG	0.2 kcal/mol
ACTGGCACGTGTGTGG	0.02 kcal/mol
TGGCTCACGTGGGTTC	0.09 kcal/mol
AGTTACACGTGTTGTG	0.06 kcal/mol
AGATTCACGTGGGTCT	0.15 kcal/mol
AAATTCACGTGGGTGT	0.17 kcal/mol
GCGGGCACGTGATAGT	0.14 kcal/mol
AGTGCCACGTGGGGGA	-0.34 kcal/mol
TTATTCACGTGGGTAG	0.06 kcal/mol
TTCCGCACGTGTGTAG	-0.06 kcal/mol
TGTAGCACGTGGTGCG	-0.29 kcal/mol
AGTCTCACGTGTGATG	0.27 kcal/mol
GGAATCACGTGGTTCG	0.23 kcal/mol
TTTAGCACGTGGCTTT	-0.14 kcal/mol
ATTGGCACGTGCGGGA	-0.08 kcal/mol
TAGGTCACGTGATTGT	0.26 kcal/mol
AGGTACACGTGAGGGG	0.31 kcal/mol

Sequence	relative binding free energy
GGGTACACGTGGTGGT	0.05 kcal/mol
TGGTGCACGTGGCATG	-0.13 kcal/mol
AAGTCCACGTGGTTTG	0.08 kcal/mol
AGAGACACGTGGGCAG	-0.05 kcal/mol
GTGAGCACGTGGGACG	-0.12 kcal/mol
CTTGGCACGTGGTCTT	-0.13 kcal/mol
TTGTGCACGTGTGGAC	0.14 kcal/mol
ATTAACACGTGGGGTG	-0.12 kcal/mol
ATGCGCACGTGATGGG	-0.01 kcal/mol
GTTATCACGTGTAAGG	0.14 kcal/mol
CATGGCACGTGTATAT	-0.02 kcal/mol
GGATTCACGTGTACGT	0.23 kcal/mol
GGTCGCACGTGAGGAT	0.47 kcal/mol
GTTCGCACGTGTGGGC	0.11 kcal/mol
CTTGGCACGTGAATTG	0.07 kcal/mol
TAATACACGTGGTTTG	0.02 kcal/mol
TTGGGCACGTGACGGC	0.17 kcal/mol
GGTGGCACGTGCTGTT	-0.19 kcal/mol
TTGGCCACGTGCGGGG	-0.15 kcal/mol
AAGAGCACGTGTGGGA	-0.16 kcal/mol
TTCGTCACGTGGAGCG	0 kcal/mol
TTAAACACGTGCGTTG	0 kcal/mol
GCTTCCACGTGGTGTT	0.13 kcal/mol
AAAGACACGTGTGGAT	0.25 kcal/mol
GATCGCACGTGTAGTG	0.11 kcal/mol

Sequence	relative binding free energy
AATATCACGTGTGGTT	0.24 kcal/mol
CTGTGCACGTGTTTAG	0.08 kcal/mol
ATACGCACGTGGTGGA	-0.23 kcal/mol
GTTGTCACGTGAAAGT	0.29 kcal/mol
CTGCTCACGTGTTGTT	0.22 kcal/mol
GAGGACACGTGGGGTT	0.03 kcal/mol
TCAGGCACGTGAGTTT	0.08 kcal/mol
TTTTTCACGTGGTTTT	0.33 kcal/mol
AGGGACACGTGCGCGG	-0.12 kcal/mol
TTTTTCACGTGGGATT	0.22 kcal/mol
CGGGTCACGTGGTTCA	0.06 kcal/mol
GGTAACACGTGTATTA	0.08 kcal/mol
ACGGTCACGTGGACGG	0.16 kcal/mol
TGGAGCACGTGTTTTG	0 kcal/mol
ATGTACACGTGTGCGT	0.06 kcal/mol
GCGTTCACGTGGGGTT	0.1 kcal/mol
AGTGGCACGTGAATTT	0.15 kcal/mol
TCTAGCACGTGAGTTT	0.13 kcal/mol
GAGTGCACGTGTGTGT	-0.01 kcal/mol
AGGGCCACGTGGGTTA	-0.17 kcal/mol
GAGATCACGTGATGTG	0.39 kcal/mol
